Experimental data taken from publication PMC7865145, “Identification of existing pharmaceuticals and herbal medicines as inhibitors of SARS-CoV-2 infection” (Proceedings of the National Academy of Sciences of the …, 2021).

Molecular target: 3CL main protease (nsp5) of SARS-CoV-2 (Severe acute respiratory syndrome coronavirus 2, UniProt P0DTD1)
Test: biochemical
[1] = FRET-based enzymatic assay, 3 independent experiments, N.I. = no inhibition, read-out: Inhibition % at 100 uM of compounds, 3CL main protease (nsp5)
[2] = FRET-based enzymatic assay, 3 independent experiments, N.I. = no inhibition
[3] = calculated from the production of substrate based on HPLC analysis, read-out: Inhibition % at 100 uM of compounds, 3CL main protease (nsp5), value in parentheses
[4] = FRET-based enzymatic assay, three independent experiments, read-out: IC50 for 3CL protease inhibition

SMILES | inhibition at 100 µM [1] [%] | Inhibition % at 100 uM of compounds, 3CL main protease (nsp5) [2] | also measured
CC1=C(C(=O)OC(C)C)C(c2cccc([N+](=O)[O-])c2)C(C(=O)OC2CN(C(c3ccccc3)c3ccccc3)C2)=C(N)N1 (stereo not drawn) [Azelnidipine 10, Azelnidipine] | 2 |  | 
CC(C)(C)NC(=O)N[C@H](C(=O)N1C[C@H]2[C@@H]([C@H]1C(=O)NC(CC1CCC1)C(=O)C(N)=O)C2(C)C)C(C)(C)C (stereo partly drawn) [Boceprevir 2, Boceprevir] | 93.8 | showed inhibition | inhibition at 100 µM [3]: 83.6%
COc1ccc2cc1Oc1ccc(cc1)C[C@H]1c3c(cc4c(c3Oc3cc5c(cc3OC)CCN(C)[C@@H]5C2)OCO4)CCN1C [Cepharanthine 4, Cepharanthine] |  | N.I. | 
CCCCc1oc2ccc(NS(C)(=O)=O)cc2c1C(=O)c1ccc(OCCCN(CCCC)CCCC)cc1 [Dronedarone 12, Dronedarone] | 41.5 |  | inhibition at 100 µM [3]: 28.7%
CC(C)(C)c1cc(C(C)(C)C)c(NC(=O)c2c[nH]c3ccccc3c2=O)cc1O [Ivacaftor 9, Ivacaftor] | 10.9 |  | 
CC[C@H](C)[C@H]1O[C@]2(CC[C@@H]1C)C[C@@H]1C[C@@H](C/C=C(\C)[C@@H](O[C@H]3C[C@H](OC)[C@@H](O[C@H]4C[C@H](OC)[C@@H](O)[C@H](C)O4)[C@H](C)O3)[C@@H](C)/C=C/C=C3\CO[C@@H]4[C@H](O)C(C)=C[C@@H](C(=O)O1)[C@]34O)O2 [Ivermectin 6, Ivermectin] |  | N.I. | 
CC(=O)N[C@@H](C)C(=O)N[C@H](C(=O)N[C@@H](Cc1ccccc1)[C@@H](O)[C@H](O)[C@H](Cc1ccccc1)NC(=O)[C@@H](NC(=O)[C@H](C)NC(C)=O)C(C)C)C(C)C [JJS-0309] |  |  | IC50: 10.5 ± 0.3 µM; Ki: 46 µM
Cc1cccc(C)c1OCC(=O)N[C@@H](Cc1ccccc1)[C@@H](O)C[C@H](Cc1ccccc1)NC(=O)[C@H](C(C)C)N1CCCNC1=O [Lopinavir] |  |  | IC50 [4]: 234 ± 98 µM
CO[C@@H]1[C@@H](OC)[C@H](C)[C@@](O)(CC(=O)O)O[C@H]1[C@H](C)[C@H]1O[C@@]2(CC[C@@](C)([C@H]3CC[C@@](C)([C@@H]4O[C@@H]([C@H]5O[C@](C)(O)[C@H](C)C[C@@H]5C)C[C@@H]4O[C@@H]4C[C@H](OC)[C@@H](OC)[C@H](C)O4)O3)O2)C[C@H](O)[C@H]1C [Maduramicin 15, Maduramicin] |  | N.I. | 
OC(c1cc(C(F)(F)F)nc2c(C(F)(F)F)cccc12)C1CCCCN1 (stereo not drawn) [Mefloquine 8, Mefloquine] |  | N.I. | 
CC[C@@]1([C@@H]2O[C@@H]([C@H]3O[C@@](O)(CO)[C@H](C)C[C@@H]3C)C[C@@H]2C)CC[C@H]([C@]2(C)CC[C@]3(C[C@H](O)[C@@H](C)[C@@H]([C@@H](C)[C@@H](OC)[C@H](C)C(=O)O)O3)O2)O1 [Monensin 14, Monensin] |  | N.I. | 
CO/N=C1\C[C@]2(C[C@@H]3C[C@@H](C/C=C(\C)C[C@@H](C)/C=C/C=C4\CO[C@@H]5[C@H](O)C(C)=C[C@@H](C(=O)O3)[C@]45O)O2)O[C@H](/C(C)=C/C(C)C)[C@H]1C [Moxidectin 7, Moxidectin] | 2.8 |  | 
Cc1c(O)cccc1C(=O)N[C@@H](CSc1ccccc1)[C@H](O)CN1C[C@H]2CCCC[C@H]2C[C@H]1C(=O)NC(C)(C)C [Nelfinavir 1, Nelfinavir] | 21 | showed inhibition | IC50: 118 ± 18 µM; Ki: 38.8 µM; inhibition at 100 µM [3]: 10.3%
OC1(c2ccc(Cl)c(C(F)(F)F)c2)CCN(CCCC(c2ccc(F)cc2)c2ccc(F)cc2)CC1 [Penfluridol 11, Penfluridol] | 25.6 |  | 
CC[C@@H](C(=O)[C@@H](C)[C@@H](O)[C@H](C)[C@@H]1O[C@@H]([C@@H](CC)C(=O)O)CC[C@@H]1C)[C@H]1O[C@]2(C=C[C@@H](O)[C@]3(CC[C@@](C)([C@H]4CC[C@](O)(CC)[C@H](C)O4)O3)O2)[C@H](C)C[C@@H]1C [Salinomycin 13, Salinomycin] |  | N.I. | 
CC(C)[C@H](NC(=O)[C@H](C)NC(=O)OCc1ccccc1)C(=O)N[C@@H](Cc1ccccc1)[C@@H](O)[C@H](O)[C@H](Cc1ccccc1)NC(=O)[C@@H](NC(=O)[C@H](C)NC(=O)OCc1ccccc1)C(C)C [TL-3] |  |  | IC50 [4]: 25 µM

Like-named read-outs stand apart in the source and are kept apart here.
